The record followed here is the RNAGym collection of RNA variant scans (doi:10.1093/nar/gkz1192).

Read counts are not given, so values of variants with three or more changes are uncertain.

Sequences and labels used below:
B1: CPEB3 Ribozyme (parent)
chain: UAACAGGGGGCCACAGCAGAAGCGUUCACGUCGCAGCCCCUGUCAGAUUCUGGUGAAUCUGCGAAUUCUGCUGUAUAUCUC

Variants of B1 are the subject of the data set. The data set can be described thus: self-cleavage, relative activity (ratio to wild type); higher = more cleavage; in vitro, sequencing. The method, boiled down: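 Barcoded CPEB3 ribozyme mutants, produced by rounds of error-prone PCR, self-cleaved while being transcribed with T7 RNA polymerase for 5 hours at 37°C and during a subsequent 15 min DNase I step before EDTA was added. Sequencing of template-switched cDNA on Illumina gave cleaved and total reads, and DNA sequencing assigned barcodes to variants. Each variant's relative activity is its cleaved/total read fraction divided by the unmutated ribozyme's fraction, averaged across three batches. A variant needed a minimum of 5 reads.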
Take UAACAGGGGGCCACAGCAGAAGCGUUCACGUCGCAGCCCCAGUCAGAUUCUGGUGAAUCUGCGAAUCCUGCUGGAUAUCUC [U41A U67C U74G]: the self-cleavage stood at 0.33.
Consider UAACAGGGGGCCACAGCAGAAGCGUUCACGUCGCAGCCCCCGUCUGAUUCUGGUGAAUCUGCGAAUCCUGCUGUGUAUCUC [U41C A45U U67C A75G], for which the self-cleavage came out at 0.26.
Turning to UAACAGGGGGCCACAGCAGAAGCGUUCACGUCGCAGCCCCCGUCGGAUUCUGGUGAAUCUGCGAAUCCUGCUGUAUAUCUC [U41C A45G U67C], the self-cleavage came out at 0.28.
On to UAACAGGGGGCCACAGCAGAAGCGUUCACGUCGCAGCCCCAGUCAGAAUCUGGUGAACCUGCGAAUUCUGCUGUAUAUCUC [U41A U48A U58C], for which the self-cleavage was determined as 0.17.
As for UAACAGGGGGCCACAGCAGAAGCGUUCACGUCGCAGCCCCCGUCAGAUUCUGGUGAGCCCGCGAAUUCUGCUGUAUAUCUC [U41C A57G U58C U60C], the self-cleavage was 0.21.
On to UAACAGGGGGCCACAGCAGAAGCGUUCACGUCGCAGCCCCAGUCAGAAACUGGUGUAUCUGCGAGUUCUACUGUAUAUCUC [U41A U48A U49A A56U A65G G70A], for which the self-cleavage worked out at 0.09.
Consider UAACAGGGGGCCACAGCAGAAGCGUUCACGUCGCAGCCCCAGUCAGAUUCUCGUGAAUCAGCGAAUUCCGCUGUAUAUCUC [U41A G52C U60A U69C], for which the self-cleavage was found to be 0.09.
On to UAACAGGGGGCCACAGCAGAAGCGUUCACGUCGCAGCCCCAGUCAGAUUCUGGUGAAUCAGCGGUUUCUGCUGGAUAUCUC [U41A U60A A64G A65U U74G], for which the self-cleavage was found to be 0.16.
With UAACAGGGGGCCACAGCAGAAGCGUUCACGUCGCAGCCCCCGUCAGAUUCUGGUGCAUCUGCGAAUUCUGCUGUGUAUCUC [U41C A56C A75G], the self-cleavage came out at 0.43.
With UAACAGGGGGCCACAGCAGAAGCGUUCACGUCGCAGCCCCAGUCAGAUUCUGGCGAAUCUGCGAAUUCUGCUGCGUAUCUC [U41A U54C U74C A75G], the self-cleavage came out at 0.1.
UAACAGGGGGCCACAGCAGAAGCGUUCACGUCGCAGCCCCAGUCAGAUCCCGGUGAAUCUGCGUACUCAGCUGUAUAUCCC [U41A U49C U51C A64U U66C U69A U80C]: the self-cleavage was 0.06.
In the case of UAACAGGGGGCCACAGCAGAAGCGUUCACGUCGCAGCCCCCGUCAGAUUCUGGUGGAUCUGCGUAUUCUGCUGUAUAUCUC [U41C A56G A64U], the self-cleavage is 0.6.
As to UAACAGGGGGCCACAGCAGAAGCGUUCACGUCGCAGCCCCAGUCAGAUUCUGGUGAAUCUGCGAAUCCAGCUGUAUAUCUC [U41A U67C U69A], the self-cleavage worked out at 0.27.
The value for UAACAGGGGGCCACAGCAGAAGCGUUCACGUCGCAGCCCCCGUCUGAUUCUGGUGAAUCUGCGAAUUCUGCUGCAUACCUC [U41C A45U U74C U78C] was 1.
With UAACAGGGGGCCACAGCAGAAGCGUUCACGUCGCAGCCCCAGUCAGAUACUGGUGAAUCUGCGAAUUCUGCUGCAUAUCUC [U41A U49A U74C], the self-cleavage is 0.27.
UAACAGGGGGCCACAGCAGAAGCGUUCACGUCGCAGCCCCCGUCAGAUUCUGGUGGAUCCGCGAAUUCUGCUGUAUAUCAC [U41C A56G U60C U80A]: the self-cleavage amounted to 0.28.
As for UAACAGGGGGCCACAGCAGAAGCGUUCACGUCGCAGCCCCAGCCAGAUUCCGGUAAAUCUGCGAAUUCUGCUGUAUAUCUC [U41A U43C U51C G55A], the self-cleavage was found to be 0.14.
Under UAACAGGGGGCCACAGCAGAAGCGUUCACGUCGCAGCCCCAGUCAGAUUCUGGUGAAUCUGCGAAUCCUGCUGUACAUCUC [U41A U67C U76C] stands 0.08; under UAACAGGGGGCCACAGCAGAAGCGUUCACGUCGCAGCCCCCGUCAGAUUCUGGUGAAUCUGCGAGUUCUGCUGUAUAUCCC [U41C A65G U80C], 0.77.
As for UAACAGGGGGCCACAGCAGAAGCGUUCACGUCGCAGCCCCAGUCAGAUCCUGGUGAAUCUGCGAAUUCAGCUGUAAAUCUC [U41A U49C U69A U76A], the self-cleavage worked out at 0.09.
For the variant UAACAGGGGGCCACAGCAGAAGCGUUCACGUCGCAGCCCCCGUCCGAUUCUGGUGAAUCUGCGUAUUCUGCUGCAUAUCAC [U41C A45C A64U U74C U80A], the self-cleavage was 0.39.
In the case of UAACAGGGGGCCACAGCAGAAGCGUUCACGUCGCAGCCCCAGUCAGAUCCUGGUGAAUCUGCGAAUUCUGCUGUAUGUCUC [U41A U49C A77G], the self-cleavage is 0.19.
On to UAACAGGGGGCCACAGCAGAAGCGUUCACGUCGCAGCCCCAGCCAGAUUCAGGUGAAUCUGCGAAAUCUGCUGUAUAUCUC [U41A U43C U51A U66A], for which the self-cleavage was found to be 0.26.
On to UAACAGGGGGCCACAGCAGAAGCGUUCACGUCGCAGCCCCAGUCAGAUUCUGGUGAAUCUGCGAAUCCUGCCGUAUAUCUC [U41A U67C U72C], for which the self-cleavage worked out at 0.15.
As to UAACAGGGGGCCACAGCAGAAGCGUUCACGUCGCAGCCCCCGUCGGAUUCUGGUGAAACUGCGAAUUCUGCCGUAUAUCUC [U41C A45G U58A U72C], the self-cleavage stood at 0.19.
Take UAACAGGGGGCCACAGCAGAAGCGUUCACGUCGCAGCCCCCGUCUGAUUCUGGUGAAUCCGCGAAUUCUGCUGUAUACCUC [U41C A45U U60C U78C]: the self-cleavage was 0.4.
As for UAACAGGGGGCCACAGCAGAAGCGUUCACGUCGCAGCCCCAGCCAGAUUCUGGUGAAUCUGGGGACUCUGCUGUAUAUCCC [U41A U43C C62G A64G U66C U80C], the self-cleavage turned out to be 0.12.
Under UAACAGGGGGCCACAGCAGAAGCGUUCACGUCGCAGCCCCCGUCAGAUUCUGGUGAGUCUGCGAAUUCUGCUGUAUAUGUC [U41C A57G C79G] stands 1.23; under UAACAGGGGGCCACAGCAGAAGCGUUCACGUCGCAGCCCCCGUCAGAUUCUGGUGAAUCUGCGGAUUCCGCUGUAUAUCUC [U41C A64G U69C], 0.22; under UAACAGGGGGCCACAGCAGAAGCGUUCACGUCGCAGCCCCCGUCUGAUUCUGGUGAGUCUGCGAAUUCUGCGGUAUAUCUC [U41C A45U A57G U72G], 0.48.
Under UAACAGGGGGCCACAGCAGAAGCGUUCACGUCGCAGCCCCAGACAGAUUCUGGUGAAUCUGCGGAUUCUGCUGUAUAUCUC [U41A U43A A64G] stands 0.21.
Under UAACAGGGGGCCACAGCAGAAGCGUUCACGUCGCAGCCCCCGUCAGAUUCUGGUGAAUCUGCGGAUUCUGCUGUUUAACUC [U41C A64G A75U U78A] stands 1.13; under UAACAGGGGGCCACAGCAGAAGCGUUCACGUCGCAGCCCCCGUCGGAUUCCGGUGAAUCUGCAAAUUCAGCUGUAUACCUC [U41C A45G U51C G63A U69A U78C], 0.39; under UAACAGGGGGCCACAGCAGAAGCGUUCACGUCGCAGCCCCAGUCAGAUUCAGGAGAAUCUGCGAAUUCUGCUGUAUAUCUC [U41A U51A U54A], 0.46.
